Measurements: the supplement of paper PMC4604168 (melanoma cell lines)
Some of the results follow. Most values come without repeats; read them as rough.

Assays:
Assay in all cases: cell count relative to DMSO control; melanoma cells; higher = more viable cells
Details in all cases: library dose: standard library concentration; 72 h; first compound 2 µM
G361 = tested on: G361
IPC-298 = tested on: IPC-298
IST-MEL1 = tested on: IST-MEL1
LOXIMVI = tested on: LOXIMVI
MEL-HO = tested on: MEL-HO
MeWo = tested on: MeWo
RPMI7951 = tested on: RPMI7951
RVH-421 = tested on: RVH-421
SkMel28 = tested on: SkMel28
SkMel2 = tested on: SkMel2
SkMel30 = tested on: SkMel30
SkMel5 = tested on: SkMel5
UACC257 = tested on: UACC257
UACC62 = tested on: UACC62
WM115 = tested on: WM115
WM1716 = tested on: WM1716
WM1745 = tested on: WM1745
WM3526 = tested on: WM3526
LB2518-MEL = tested on: LB2518-MEL
MZ2-MEL = tested on: MZ2-MEL
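Further: cells treated in 1,536-well plates, then fixed and DAPI-stained, with nuclei counted from automated high-throughput microscope images.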

Row | Compound | cell count (G361) | cell count (IPC-298) | cell count (IST-MEL1) | cell count (LOXIMVI) | cell count (MEL-HO) | cell count (MeWo) | cell count (RPMI7951) | cell count (RVH-421) | cell count (SkMel28) | cell count (SkMel2) | cell count (SkMel30) | cell count (SkMel5) | cell count (UACC257) | cell count (UACC62) | cell count (WM115) | cell count (WM1716) | cell count (WM1745) | cell count (WM3526) | cell count (LB2518-MEL) | cell count (MZ2-MEL)
1 | C[C@@H](N)c1ccc(C(=O)Nc2ccnc3[nH]ccc23)cc1 + Cn1nnc2c(C(N)=O)ncn2c1=O [temozolomide] (partner dose 10 µM) | 85.4% | 100% | 75.6% | 81.9% | 74.8% | 84.6% | 67.3% | 71.1% | 32.7% | 104% | 68.1% | 68.2% | 73.2% | 59.5% | 86.6% | 32.9% | 59.1% | 103% | – | –
2 | Cn1sc(=O)n(Cc2ccccc2)c1=O + O=C(O)[C@@H]1[O][Sb](=[O])([O][Sb]2(=[O])[O][C@H]([C@H](O)CO)[C@H](O)[C@H](C(=O)O)[O]2)[O][C@H]([C@H](O)CO)[C@@H]1O [stibogluconate] (partner dose 10 µM) | 80.1% | 73.5% | 92.4% | 92.9% | 87.8% | 82% | 67.2% | 78% | 66.2% | 83.4% | 70.5% | 65.8% | 108% | 73.2% | 123% | 96.8% | 88.1% | 85.8% | – | –
3 | C[C@@H](N)c1ccc(C(=O)Nc2ccnc3[nH]ccc23)cc1 + CC(C)CCN1c2nc(Nc3cc(F)c(O)c(F)c3)ncc2N(C)C(=O)C1C [BID1870] (partner dose 1 µM) | 66.3% | 77.5% | 76.5% | 82.8% | 67.4% | 47.3% | 45.1% | 45.9% | 60.6% | 75.6% | 71.7% | 52.7% | 56.6% | 58.9% | 90.3% | 8.19% | – | 57.2% | 130% | 51.4%
4 | Cn1sc(=O)n(Cc2ccccc2)c1=O + CCN(CC)CCCCNc1ncc2cc(-c3cc(OC)cc(OC)c3)c(NC(=O)NC(C)(C)C)nc2n1 [PD173074] (partner dose 0.5 µM) | 88% | 93.4% | 93.1% | 81.2% | 99.3% | 81.3% | 73.1% | 83.1% | 84.1% | 99.4% | 84.8% | 93.9% | 100% | 61.8% | 92.3% | 89.5% | – | 90.6% | 109% | 94.2%
5 | C[C@@H](N)c1ccc(C(=O)Nc2ccnc3[nH]ccc23)cc1 + Cc1cc([N+](=O)[O-])ccc1NS(=O)(=O)c1cc(Cl)ccc1Cl [FH535] (partner dose 5 µM) | 46.1% | 51.9% | 54.7% | 65.1% | 42.3% | 63.3% | 62.8% | 42.3% | 72.2% | 72.9% | 76% | 50.7% | 48.5% | 85.9% | 78% | 46.9% | – | 90.4% | 73.2% | 35.1%
6 | Cn1sc(=O)n(Cc2ccccc2)c1=O + C=CCNC1=C2C[C@@H](C)C[C@H](OC)[C@H](O)[C@@H](C)/C=C(\C)[C@H](OC(N)=O)[C@@H](OC)/C=C\C=C(/C)C(=O)NC(=CC1=O)C2=O [Tanespimycin] (partner dose 0.01 µM) | 57.5% | 83% | 69.9% | 125% | 79.4% | 67.9% | 23.5% | 104% | 48% | 77.2% | 79.2% | 47.5% | 89.5% | 45.4% | 25.2% | 76.1% | 55.3% | 74.1% | – | –
7 | Cn1sc(=O)n(Cc2ccccc2)c1=O + CCc1ccc(CCOc2ccc(CC3SC(=O)NC3=O)cc2)nc1 [pioglitazone] (partner dose 10 µM) | 107% | 112% | 107% | 100% | 93.9% | 84.9% | 86.8% | 86.9% | 79.9% | 111% | 106% | 97.3% | 82.1% | 106% | 87.3% | 96.8% | – | 95.6% | 104% | 128%
8 | Cn1sc(=O)n(Cc2ccccc2)c1=O + NCC(=O)Nc1ccc(-n2nc(C(F)(F)F)cc2-c2ccc3c(ccc4ccccc43)c2)cc1 [OSU03012] (partner dose 5 µM) | 79.5% | 50.3% | 79.6% | 73.1% | 72% | 85.2% | 62.4% | 67.6% | 16.2% | – | 58.7% | 52.6% | 95.5% | 78.9% | 84.8% | 88.4% | 79.3% | 45% | – | –
9 | Cn1sc(=O)n(Cc2ccccc2)c1=O + CC(C)CCN1c2nc(Nc3cc(F)c(O)c(F)c3)ncc2N(C)C(=O)C1C [BID1870] (partner dose 1 µM) | 61.1% | 75.6% | 81.5% | 97.6% | 65.2% | 63.7% | 80.7% | 71.8% | 51.5% | 79.5% | 74.1% | 73.3% | 80.9% | 67.8% | 90.2% | 98.4% | – | 72.2% | 78.3% | 88.2%
10 | CCCCCCCCCCCCCCCCCCOP(=O)([O-])OC1CC[N+](C)(C)CC1 [Perifosine] + O=c1cc(-c2cccc3c2Sc2ccccc2S3)oc(N2CCOCC2)c1 [KU55933] (partner dose 5 µM) | 74% | 87.5% | 92.4% | 103% | 67.1% | 92% | 20% | 98.7% | 69.3% | 95.5% | 81.2% | 97.6% | 92.8% | 89.6% | 93.7% | 87.8% | – | 86.9% | 88.5% | 96.1%
